Results are given in words; binding and its absence hold for the method and conditions named. Binding seen in cells or lysates may run through a third protein. Some results given as binding are weak or reduced against the parent protein; the word gives no strength. Sequences can lack the tags named with a protein.
T1: SBP-Flag Rnd1 (mouse) (UniProt Q8BLR7)
T1 sequence: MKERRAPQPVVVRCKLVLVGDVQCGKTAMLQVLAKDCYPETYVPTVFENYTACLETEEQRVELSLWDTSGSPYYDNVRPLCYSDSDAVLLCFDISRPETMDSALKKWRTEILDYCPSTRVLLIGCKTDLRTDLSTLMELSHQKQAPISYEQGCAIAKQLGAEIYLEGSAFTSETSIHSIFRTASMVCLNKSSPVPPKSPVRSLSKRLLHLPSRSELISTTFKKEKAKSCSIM

Protein sequences, listed by entry. Tags and fused reporters are not part of them. Lines headed by an entry give the natural chain unless they say otherwise; changes in a name come on top.
UniProt P60766: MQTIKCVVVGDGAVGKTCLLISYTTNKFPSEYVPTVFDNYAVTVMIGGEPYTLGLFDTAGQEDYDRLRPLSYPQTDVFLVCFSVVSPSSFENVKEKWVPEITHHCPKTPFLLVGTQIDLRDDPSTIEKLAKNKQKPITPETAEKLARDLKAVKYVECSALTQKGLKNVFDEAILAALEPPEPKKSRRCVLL
UniProt Q9QUI0: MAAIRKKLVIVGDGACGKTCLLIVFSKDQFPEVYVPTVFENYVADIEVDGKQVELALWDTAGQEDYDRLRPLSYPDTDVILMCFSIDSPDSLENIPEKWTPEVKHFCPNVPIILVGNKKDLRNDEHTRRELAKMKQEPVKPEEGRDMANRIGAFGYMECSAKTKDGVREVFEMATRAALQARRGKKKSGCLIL

T2: SBP-Flag Rnd3 (mouse) (UniProt P61588)
T2 sequence: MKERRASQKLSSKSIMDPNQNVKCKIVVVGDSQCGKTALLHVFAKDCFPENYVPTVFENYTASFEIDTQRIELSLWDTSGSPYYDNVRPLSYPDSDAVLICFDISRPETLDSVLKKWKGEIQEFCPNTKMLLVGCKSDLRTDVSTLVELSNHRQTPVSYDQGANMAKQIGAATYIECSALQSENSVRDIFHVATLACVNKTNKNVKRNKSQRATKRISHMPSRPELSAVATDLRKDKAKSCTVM

T3: SBP-Flag Rnd2 (mouse) (UniProt Q9QYM5)
T3 sequence: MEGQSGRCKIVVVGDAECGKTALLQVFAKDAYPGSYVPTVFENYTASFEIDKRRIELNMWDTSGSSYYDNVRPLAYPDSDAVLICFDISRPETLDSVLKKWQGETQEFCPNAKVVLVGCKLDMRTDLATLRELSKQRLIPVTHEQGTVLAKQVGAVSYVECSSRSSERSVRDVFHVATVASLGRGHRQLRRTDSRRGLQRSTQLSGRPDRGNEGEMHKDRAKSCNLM

B1: Flag-Syx(1–800) (domain or fragment, UniProt Q66T02-1 1-800)
chain: MGTGPGVSGRRAAARPSSELPSPDSQLLWVGGHAHSSDSQVCHHADCQQLHHRGPLNLCETCDSKFHSTLHYDGHVRFDLPPQGSVLARNVSTRSCPPRTSPAADLEEEEEGCTDGKGDRKSAGLKISKKKARRRHTDDPSKECFTLKFDLNVDIETEIVPAMKKKSLGEVLLPVFERKGIALGKVDIYLDQSNTPLSLTFEAYRFGGHYLRVKAKPGDEGKVEQGVKDSKSLSLPALRPSGAGPPVSERVDPQSRRESSLDILAPGRRRKNMSEFLGEAGIPGHEPPAPSSCSLPVGSSGGTSSGINESWKNRAASRFSGFFSSSPSTSAFSREVDKMEQLESKLHAYSLFGLPRMPRRLRFDHDSWEEEEEDDEEDEESSGLRLEDSWRELTDGHEKLTRRQCHQQEAVWELLHTEVSYIRKLRVITNLFLCCLLNLQESGLLCEVEAERLFSNIPEIAKLHRGLWGSVMVPVLEKARRTRALLQPSDFLKGFKMFGSLFKPYIRYCMEEEGCMEYMRGLLRDNDLFRAYVTWAEKHQQCQRLKLSDMLAKPHQRLTKYPLLLKSVLRKTDDPRTKEAIVTMISSVERFIHHVNTCMRQRQERQRLAGVVSRIDAYEVVEGSNDEVDKLLKEFLHLDLTAPMPGTSPEETRQLLLEGSLRMKEGKDSKMDVYCFLFTDLLLVTKAVKKAERTKVIRPPLLVDKIVCRELRDPGSFLLIYLNEFHSAVGAYTFQASSQALCRSWVDTIYNAQNQLQQLRAQLSAQEHPGSQHLQSLEEEEDEQEEEGEESGTSAASSPT
B2: Flag-Syx, full length (protein, UniProt Q66T02 1-1073)
chain: MGTGPGVSGRRAAARPSSELPSPDSQLLWVGGHAHSSDSQVCHHADCQQLHHRGPLNLCETCDSKFHSTLHYDGHVRFDLPPQGSVLARNVSTRSCPPRTSPAADLEEEEEGCTDGKGDRKSAGLKISKKKARRRHTDDPSKECFTLKFDLNVDIETEIVPAMKKKSLGEVLLPVFERKGIALGKVDIYLDQSNTPLSLTFEAYRFGGHYLRVKAKPGDEGKVEQGVKDSKSLSLPALRPSGAGPPVSERVDPQSRRESSLDILAPGRRRKNMSEFLGEAGIPGHEPPAPSSCSLPVGSSGGTSSGINESWKNRAASRFSGFFSSSPSTSAFSREVDKMEQLESKLHAYSLFGLPRMPRRLRFDHDSWEEEEEDDEEDEESSGLRLEDSWRELTDGHEKLTRRQCHQQEAVWELLHTEVSYIRKLRVITNLFLCCLLNLQESGLLCEVEAERLFSNIPEIAKLHRGLWGSVMVPVLEKARRTRALLQPSDFLKGFKMFGSLFKPYIRYCMEEEGCMEYMRGLLRDNDLFRAYVTWAEKHQQCQRLKLSDMLAKPHQRLTKYPLLLKSVLRKTDDPRTKEAIVTMISSVERFIHHVNTCMRQRQERQRLAGVVSRIDAYEVVEGSNDEVDKLLKEFLHLDLTAPMPGTSPEETRQLLLEGSLRMKEGKDSKMDVYCFLFTDLLLVTKAVKKAERTKVIRPPLLVDKIVCRELRDPGSFLLIYLNEFHSAVGAYTFQASSQALCRSWVDTIYNAQNQLQQLRAQLSAQEHPGSQHLQSLEEEEDEQEEEGEESGTSAASSPTILRKSSNSLDSEHCTSDGSTETLAMVVVEPGATLSSPEFEGGPVSSQSDESSLSNTASSVTPTSELLPLGPVDGRSCSMDSAYGTLSPTSLQDFVAPHPVVEPAPVPQTPSPQPSPRLRRRTPVQLLPRPPRLLKSKSEASLLQLLSGTPAARGVPPAPSRSLSELCLISVAPGVRTQRPLQEGGPGWNGPGMCDPCHGPQLSESENRPSHMTGGPADSARRRCREMPSGTMSRVQSEPPSGVSAQHRKLTLAQLYRIRTTLLLNSTLTASEV
B3: Flag-MyoGEF (protein, UniProt Q8R0J1 1-787)
chain: MQAFGPPNEGPLQGLVASRIETYGGRHQTSAHSTAGNLFPRGGPGVDPSRRRLQHYVPFAKGSGQTRGMSPLVLREPDPEKRHGSYFGVGPPHSPKLKEVTRAHELEIRLHTFSMFGMPRLPPEDRRHWEIGEGGDSALTMEKSWKELVLEHKEMNRQLCHQQEALWELLTTELIYLRKLKIMTDLLAAGLLNLQRVGLLTEVSAETLFGNVPNLIRAHRRFWEEVLQPILEDTRTSGQPLDPVSLQNGFLTFGQRFQPYVQYCLRVKQTMAYAREQQDTNPLFHTFVQWCEKHKRSGRQTLGDLLIKPHQRITKYPLLLQAVRKRSPEPRAQEALNAMIEAVESFLRHINGQVRQGEEQESLMAVAQRIGPYEVLEPSSEEVEKNLRPFSTLDLMTPVLGVAPEYTRQLLLEGPVRVKEGREGKMDVYLFLFSDVLLVTKPQRKADRAKVIRPPLMLEKLVCRPLRDPNSFLLIHLTEFQCVSSALTVHCPSSTERARWLEKTQHAQTTLQKLKGEQYIQQKRELLALYRNQGTESPSTRPSTPSPSPEDSQSSAEGRTLEFAIIPRLVVTEDTDEDTPSMPDDASDSGYGTLIPSSPKDSHSPLNRLRSKALRRDPRLTFSTLELRDVPLRPQPPDPQAPQRRSAPELPEGILRGGSLPRRAPPIWSEEEDETLASGNVVVETLHRAQRRSPLPHSPTHTDSAGESPWESSDEDEGLLSPELRPRSLREDMLREIREELANQRIDGASEPEPGNGKPRRLTLAQLQRMRVPHIIQLDTPLSTSEV

How the values were obtained:
Assay in all cases: pull-down; streptavidin (SBP) pull-down from lysates of co-transfected 293T cells, SBP-Flag GTPase as bait; beads 1 h at 4°C, 3 washes, elution with 2 mM biotin; immunoblot for Flag
[1] = target: SBP-Flag Cdc42(G12V) (mouse) (UniProt P60766)
SBP-Flag Rnd1 (mouse) = target: T1, SBP-Flag Rnd1 (mouse)
SBP-Flag Rnd3 (mouse) = target: T2, SBP-Flag Rnd3 (mouse)
[2] = target: SBP-Flag RhoA(G14V) (mouse) (UniProt Q9QUI0)
[3] = target: SBP-Flag RhoA (WT) (mouse) (UniProt Q9QUI0)
SBP-Flag Rnd2 (mouse) = target: T3, SBP-Flag Rnd2 (mouse)

Row | Binder | binding [1] | binding (SBP-Flag Rnd1 (mouse)) | binding (SBP-Flag Rnd3 (mouse)) | binding [2] | binding [3] | binding (SBP-Flag Rnd2 (mouse))
1 | B1 | no binding | binds | binds | binds | binds | 
2 | B2 |  | binds weakly | binds |  |  | binds weakly
3 | B3 |  | no binding | no binding |  |  | no binding
